Source: the supplement of paper PMC11417369
This is one part of the list.

These sequences were tested on PfAP2-HC AP2 domain (GST-tagged) (assay: gcPBM binding intensity (ln(normalized median fluorescence intensity)); higher = stronger DNA binding).
Procedure, shortened: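 The highest Masliner-normalised natural-log median intensity across replicate spots of either probe orientation is reported as binding intensity. GST-tagged P. falciparum DNA-binding domains expressed in E. coli were applied for 1 h to an Agilent 4 × 180k array of primer-extended double-stranded 36-bp intergenic genomic probes plus negative controls, and bound protein was detected with Alexa488 anti-GST antibody and scanned at 488 nm.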

Row | Sequence | gcPBM binding intensity (ln)
1 | TACAAATGCGTATGTCAATATATGGAGAAATAAATA [TGCATGCA_negctrl_site290] | 9.56
2 | TGTATATGGTTTGTGCAAAAATTTATTAATGTGTAA [TGCATGCA_negctrl_site374] | 9.71
3 | ATTTGTATATACATATGTACACATGTAGGCTCATAA [XGTACX_site1709] | 9.79
4 | TTTCGTAAACTTTATGCACACACATATACATATTTC [CACACA_site8146] | 10.2
5 | TGACTACATAAAATGACACACACAAACTTTAAAATT [CACACA_site9151] | 10.2
6 | ATATATTTTTAGCACAGTACAATATAATTAAATATA [XGTACX_site6779] | 9.62
7 | ATATGCTAATAAAATTGTACATATTATTCATATTGT [XGTACX_site2344] | 9.68
8 | ATAAATACTTTTTGGTGTACACTTTTAAATGAAAAA [XGTACX_site3042] | 9.52
9 | ATTTTTCCTCTCTTTTGTACTTATATATATATATAT [XGTACX_site7405] | 9.88
10 | CAATTAAAGAAAAACAGTACGTGTATCAAACATCCT [XGTACX_site8990] | 9.94
11 | ATATTATATAATAATGCATGCACCTTATTTTCATTT [TGCATGCA_site405] | 9.89
12 | AACAAAATAAAAATAACACACACATTTATATATATA [CACACA_site8313] | 10.6
13 | ATTATATTATTTTAAAGTACACACATATATTAATAT [XGTACX_site4769] | 9.9
14 | AAAAGTTGTTTATAATGTACAAGGTAGAAAAAAACA [XGTACX_site1454] | 9.67
15 | TAAATGGATTGTTCAGGTACACATAAATATGATATT [XGTACX_site6963] | 9.57
16 | TAAAAATAATATATTTGTACATATGTGTATACATAA [XGTACX_site741] | 9.48
17 | TATAAATACATACATACACACATATATATATATATT [CACACA_site6116] | 10
18 | TCCTAAAAAAAAAAAAAAAATGAAAAAGGAAAAAAA [CACACA_negctrl_site1646] | 9.3
19 | CAAGCACAGAAACACACACACACACCGACACAGACA [CACACA_site4359] | 10.9

Row | Sequence | gcPBM binding intensity (ln)
20 | AAAAAAAAAAAAAAAAGTACTAAATGTAAAAGAATA [XGTACX_site2164] | 9.6
21 | AATGTATTAAAATTACGTACATATGCACATTTTATA [XGTACX_site5046] | 9.69
22 | TTTTTTATTTTGTGCACACACATAAAAATATAAATA [CACACA_site6497] | 9.84
23 | TACTCTTTCCAGAAGTGTACATAGAAATAATTACAT [XGTACX_site2668] | 9.55
24 | TATATATGTATGTATGCATGCCCTTTTTTAAAAAAA [TGCATGCA_site434] | 9.59
25 | AAAAAAAAAAAAAAAAAAATAAAAAATAAATAAATA [CACACA_negctrl_site1498] | 9.23
26 | AAGAAAAAACAAACATGTACACATAATTTAGTTTTT [XGTACX_site3121] | 9.67
27 | TAGTATTATTATTATGCACACAAAAATATTTATACA [CACACA_site9219] | 9.69
28 | TTTTTTTTTTTTTTTTGTACATAATTATATATTTAC [XGTACX_site7540] | 9.33
29 | AGCATTTCTTTTACATGTACATAATATTTTTAATAA [XGTACX_site1968] | 9.7
30 | TTTGAAAAGTATGAGGTGCAAAAAATGTAATGAAAT | 9.85
31 | TATATTATTATGCATAGTACGTACTGTGATAAGAAT [XGTACX_site2956] | 9.73
32 | TTTTTCTGTCGTTGTTGTACTTGAGGAGTAACAATT [XGTACX_site7852] | 9.64
33 | CATTTTAAAACAGACACACACCAAAAAAAAAAAAAA [CACACA_site6259] | 9.88
34 | TACAAATACATTACATGTACATATTTAATAATATCA [XGTACX_site2075] | 9.66
35 | TTTTCAATTAATAATACACACATGTATATATTATTA [CACACA_site3311] | 9.64
36 | AAGAAAAATATATATATAAATAAATAAATATATATA [TGCATGCA_negctrl_site330] | 9.68
37 | TTTCTGATATTTTTATATTTTCTTATATATATATAT [GTGCAC_negctrl_site652] | 9.83
38 | TTTAAATTTTAATATGCACACAAAATGTTATATTAA [CACACA_site8015] | 9.41

Row | Sequence | gcPBM binding intensity (ln)
39 | GTATATAAGTATATATGTACATATATTTTATATATA [XGTACX_site4745] | 9.68
40 | AATACGAAGGATAAGAGTACTAATTAAATAAATGAA [XGTACX_site523] | 9.79
41 | ATATAAGAATAAATAGTGCAAAATAAATGATTATTT | 9.86
42 | TTTTTTTTTTTTTTGGTGCGATCTTTTAAATGATCC | 9.26
43 | TTTTATAATTTAAAATAATGAAACTTCTTTCTATTT [TGCATGCA_negctrl_site324] | 9.41
44 | GCCTTTTTATTTAGAACACACACAAAAAAAAAAAAA [CACACA_site8520] | 9.67
45 | TATTATATCGAACACTGTACTTTTTTATTCAACCTA [XGTACX_site493] | 9.68
46 | ATATATATATATATAGTGCAAATATCTTCTTTATAA | 9.68
47 | TAATAAACCAAACTAAACAATATATCAAAAAGCACA [CACACA_negctrl_site269] | 9.91
48 | AATAATAAATATATATATATATATATATATATATTT [CACACA_negctrl_site786] | 9.49
49 | TATATACAAAATGCCTGTACATATATATTTATTTAT [XGTACX_site761] | 9.77
50 | CATGCAAAAAATTCCACACACACACCCACATATAAA [CACACA_site1229] | 10.8
51 | CTTTCTTATTTGAACGCATGCATTTGTACCTTTTAT [TGCATGCA_site671] | 9.95
52 | TATTTAATAAAGAAATAAAAATAAAGAAAAAAAAAA [CACACA_negctrl_site74] | 9.49
53 | ACCTACATAACATACACACGCATATATATAATTTTA [CACACA_site2847] | 9.97
54 | AATTATTTATCGGAATGTACATAAAAACATATGTAT [XGTACX_site7443] | 9.61
55 | AATAATATCATTTAGACACACACTCTTACAATATGT [CACACA_site8832] | 9.93
56 | AATAGCCCATATGGAATACACACTGAAAATAAAAAA [CACACA_site3373] | 10.2
57 | TATAAATTTGTTGTTGCATGCAGTATACCAAAAAAA [TGCATGCA_site445] | 9.57
